The campaign covered roughly 52,000 compounds. About 4,300 (8.3%) were called active. Cut-off read from the data, not from the text of the source: active = survival mostly below about 52% (no sharp cut-off); inactive = mostly above about 56%. The list shows a part of the results.

This experiment concerns DeltatarO mutant. The experiment in a line: S. aureus survival, RN4220 and DeltatarO strains – OD600, teichoic acid synthesis inhibitors, primary screen (AID 463173). The following applies: S. aureus RN4220 wild type/DeltatarO growth, OD600, 18 h, stronger effect = lower value, screened at 18.75 µg/mL (by protocol).
In the case of `Cc1ccc(N2CCN(C(=O)c3ccc(Nc4nc5ccccc5n5nnnc45)cc3)CC2)c(C)c1`, the survival is inactive: 82%.
As for `COc1ccccc1N1CCN(S(=O)(=O)c2c(C)sc3ncn(CC(=O)Nc4ccc(C(C)C)cc4)c(=O)c23)CC1`, the survival was inactive: 70%.
With `COc1ccc(-n2c(=O)c3c4c(sc3n(CC(=O)N3CCCCC3C)c2=O)CCC4)c(OC)c1` (stereo not drawn), the survival was inactive: 87%.
Take `CC1CCN(CCCNC(=O)CN2C(=O)CSc3ccc(S(=O)(=O)N4CCC(C)CC4)cc32)CC1`: the survival was inactive: 95%.
Then `O=C(NCc1ccc(F)cc1)C1CCN(S(=O)(=O)c2ccc3c(c2)CCCN3C(=O)C2CCC2)CC1`, with inactive: 91%.
Then `O=C(COc1ccccc1Cl)N(Cc1ccco1)Cc1ccco1`, with inactive: 63%; and `Cc1ccccc1C(=O)Oc1cc(-c2ccc3c(c2)OCO3)cc(=O)c2c(C)oc(C)c12`, with inactive: 111%.
In the case of `CN(C)c1ccc(NC(=O)CSc2nc(-c3ccco3)cc(C(F)(F)F)n2)cc1`, the survival is inactive: 65%.
Then `COc1ccccc1OCCCCn1c(C2CC(=O)N(c3ccccc3Cl)C2)nc2ccccc21` (stereo not drawn), with inactive: 61%.
Take `Cc1ccc(NC(=O)/C(C#N)=C/c2ccccc2Cl)cc1C`: the survival is active: 34%.
To `COc1ccc(CCNC(=O)Cn2c(=O)n(-c3ccc(OC)c(OC)c3)c(=O)c3ccccc32)cc1OC` belongs inactive: 92%; to `CCN(CC)CCNC(=O)CN1C(=O)c2cccnc2Oc2ccc(C)cc21`, inactive: 67%.
`CCN(C(=O)c1sc2cc(OC)ccc2c1Cl)c1ccccc1`: the survival was active: 0%.
`Cc1ccc(NC(=O)CN2c3ccccc3S(=O)(=O)c3ccccc32)cc1F`: the survival is inactive: 33%.
Then `CN(Cc1ccccc1)Cc1c(O)ccc2c(=O)c(-c3ccccc3)c(C(F)(F)F)oc12`, with inactive: 124%.
To `O=C(NC1CCCC1)c1cnn(-c2ccc(F)cc2F)c1C1CCNCC1` belongs inactive: 49%.
As to `Cc1ccccc1C(=O)NC1CCN(CC(=O)NC(C)(C)C)CC1`, the survival was inactive: 85%.
To `Cc1cccc(Cn2c(=O)n(CCCCC(=O)NCc3ccc4c(c3)OCO4)c(=O)c3ccccc32)c1` belongs inactive: 102%; to `CCSc1nnc2c(n1)OC(c1ccc(OC)cc1OC)N(C(C)=O)c1ccccc1-2` (stereo not drawn), active: 58%; to `S=C(Nc1ccccc1)N1CCOCC1`, inactive: 89%.
For the compound `CC(=O)NCCNc1nc2c(-c3cccc(C)c3)nnn2c2ccc(Cl)cc12`, the survival is inactive: 80%.
As for `CSc1ccc(CNC(=O)Cc2csc3ccccc23)cc1`, the survival is inactive: 83%.
For `COc1cccc(Nc2sc(C(=O)c3ccc4c(c3)OCO4)c(N)c2S(=O)(=O)c2ccccc2)c1`, the survival was inactive: 87%.
Regarding `COc1ccc(-n2nnnc2C2CCN(S(=O)(=O)c3ccc(F)cc3Cl)CC2)cc1`, the survival was inactive: 68%.
Take `COc1ccc(N2CC(NC(=O)Cc3cccs3)CC2=O)cc1` (stereo not drawn): the survival was inactive: 49%.
With `CC(C)NC(=O)COc1ccc(S(=O)(=O)N2CCCC2)cc1`, the survival was inactive: 97%.
Then `COc1cc(NC(=O)Cn2c(=O)n(CC(=O)NCCc3ccc(OC)c(OC)c3)c(=O)c3sccc32)cc(OC)c1`, with active: 49%; and `Cc1nc(-c2ccc(S(=O)(=O)N3CCN(c4cccc(Cl)c4)CC3)cc2)co1`, with inactive: 91%.
On to `CC(=O)c1cccc(NC(=O)c2sc(-n3nc(C)c(CCC(C)C)c3C)nc2C)c1`, for which the survival is inactive: 53%.
In the case of `Cn1cc(C(=O)O)c(=O)c2ccccc21`, the survival was inactive: 80%.
As to `Cc1ccc(C(=O)c2oc3ccccc3c2NC(=O)c2cc(-c3ccc(Cl)cc3)on2)cc1`, the survival was inactive: 87%.
Then `COc1ccc(Cl)cc1NC(=O)Cn1ncc2c3ccccc3n(Cc3ccccc3)c2c1=O`, with inactive: 125%.
To `Cc1ccc2ncc(S(=O)(=O)c3ccccc3)c(N3CCCCC3C)c2c1` (stereo not drawn) belongs active: 7%; to `CCn1c(C)c(C)c2cc(C(=O)NCc3ccc(N(C)C)cc3)ccc21`, inactive: 113%; to `COc1ccc(CNC(=O)CN(c2cc(C(F)(F)F)ccc2Cl)S(C)(=O)=O)cc1`, inactive: 71%.
To `COc1ccc(C2=NC3(CCCCCC3)N(CC(=O)Nc3ccc(C)c(C)c3)C2=O)cc1` belongs inactive: 70%; to `CCc1nc2c(cnn2-c2ccc(C)cc2)c(=O)n1-c1ccc(C)cc1`, inactive: 47%.
Regarding `COc1ccc(S(=O)(=O)c2c(SC)nn(CC(=O)Nc3ccc(C)c(Cl)c3)c2N)cc1`, the survival was inactive: 83%.
Then `Cc1ccc(-c2noc(C(C)NC(=O)c3ccco3)n2)cc1` (stereo not drawn), with inactive: 70%.
To `CCn1cc(C(=O)NCCc2ccc(OC)c(OC)c2)c(=O)c2cc(S(=O)(=O)N3CCOCC3)ccc21` belongs inactive: 70%.
To `Cc1ccc(C(=O)Nc2nnc(S(=O)(=O)N(C)Cc3ccco3)s2)cc1` belongs active: 39%; to `Cc1ccc(C)c(NC(=O)CN2CCN(C3CCCCC3)C(=O)C2=O)c1`, inactive: 94%.
Regarding `COc1cccc(CNC(=O)c2ccc3c(c2)nc2n3CCOC2)c1OC`, the survival was inactive: 81%.
Regarding `CC1CCN(S(=O)(=O)c2ccc3c(ccn3CC(=O)NCc3ccccc3F)c2)CC1`, the survival was inactive: 54%.
On to `CC1=C(c2ccc(C)cc2)S(=O)(=O)N(Cc2ccc(C(=O)NCc3ccccc3)cc2)C1=O`, for which the survival was inactive: 81%.
`O=C(NCc1ccc(F)cc1)c1ccc2c(c1)N(Cc1c(F)cccc1Cl)C(=O)CS2`: the survival was active: 40%.
With `Cc1cc(C)c2c(=O)cc(C(=O)Nc3sc4c(c3C#N)CCCC4)oc2c1`, the survival was active: 12%.
For the compound `Cc1ccccc1NC(=O)CN1C(=O)C2(SCC(=O)N2c2ccc(F)cc2)c2ccccc21` (stereo not drawn), the survival is inactive: 72%.
Then `COCCCNC(=O)CSc1nc2cc3c(cc2c(=O)n1CCCCCC(=O)NCCc1ccc(OC)c(OC)c1)OCO3`, with inactive: 88%; and `COc1ccccc1CNCC(=O)NCc1ccc(C)cc1`, with inactive: 96%.
Then `CC(C)(C)C1CCc2nc(NC(=O)COc3ccccc3[N+](=O)[O-])sc2C1` (stereo not drawn), with inactive: 106%.
To `CCc1nn2c(=O)cc(COC(=O)c3cccc(NC(=O)c4ccccc4C)c3)nc2s1` belongs inactive: 86%.
Turning to `O=C(NCc1ccc2c(c1)OCO2)c1ccc(S(=O)(=O)N2CCCC2)cc1`, the survival was inactive: 84%.
Then `Cc1ccc(CNS(=O)(=O)c2cc(C(=O)Nc3ccc(C(C)C)cc3)ccc2F)cc1`, with inactive: 80%.
For `COc1ccc(C2=C(C)C(N3CCC(C(=O)NCc4ccco4)CC3)=NS2(=O)=O)cc1`, the survival is inactive: 84%.
To `CCN(CC)c1ccc(NC(=O)c2ccccc2F)cc1` belongs active: 63%; to `Cc1ccc(CNC(=O)CSCc2nc(-c3ccc(Cl)cc3)oc2C)cc1`, inactive: 66%.
To `COc1ccc2c(c1)c(CC(=O)Nc1cccc(F)c1C)c(C)n2C(=O)c1ccc(Cl)cc1` belongs inactive: 126%; to `O=C(Nc1ccc(F)c(F)c1)c1cc(S(=O)(=O)N2CCc3ccccc32)ccc1F`, inactive: 81%; to `COc1cccc(-n2ccn(CC(=O)Nc3ccccc3F)c(=O)c2=O)c1`, inactive: 78%.
To `COC(=O)c1ccccc1NC(=O)COCc1cc(-c2cccs2)on1` belongs inactive: 98%; to `COc1ccc(-c2cc(C(=O)Nc3cccc(C(C)=O)c3)no2)cc1OC`, inactive: 67%.
Consider `Nc1nonc1C(=O)N1CCCC1`, for which the survival is inactive: 98%.
For `CCn1c(=O)n(-c2ccc(F)c(Cl)c2)c(=O)c2sc3ccccc3c21`, the survival is inactive: 96%.
Then `Cc1ccc(CN(C(=O)c2ccc(F)cc2)c2ccccn2)o1`, with inactive: 66%; and `Cc1ccc(CNc2nc3c(c(=O)n(C)c(=O)n3C)n2Cc2ccc(Cl)cc2)cc1`, with inactive: 54%.
`CCOc1ccc2nc(Cl)c(CN(Cc3ccco3)C(=O)N(C)C)cc2c1`: the survival is inactive: 59%.
To `CCOC(=O)c1[nH]c2ccccc2c1NC(=O)c1cc(OC)cc(OC)c1` belongs active: 48%.
Regarding `COc1ccc(N2C(N)=C(C#N)C(c3ccc(O)c(OC)c3)C3=C2CCCC3=O)cc1` (stereo not drawn), the survival was inactive: 95%.
Take `COc1cccc(-c2ccnc3c(-c4ccccc4)c(C)nn23)c1`: the survival is inactive: 51%.
As for `CCOc1ccc(NC(=O)N2CCC(CN3CCC(C)CC3)CC2)cc1`, the survival is inactive: 117%.
As to `Cc1cccc(N2CCN(C(=O)COCc3cc(-c4ccc5c(c4)OCO5)on3)CC2)c1C`, the survival is inactive: 101%.
For the compound `Cc1ccccc1-c1nc2c3c(-c4ccccc4)c(-c4ccccc4)oc3ncn2n1`, the survival was inactive: 58%.
On to `CCOc1ccc2nc(N3CCCC(C(=O)NCCc4ccc(Cl)cc4)C3)sc2c1` (stereo not drawn), for which the survival was active: 48%.
For `CCOC(=O)c1c(NC(=O)Cc2coc3ccc(CC)cc23)sc2c1CCC2`, the survival is inactive: 82%.
Then `Cc1cccc(N2CCN(c3ccc4cc(S(=O)(=O)N5CCC(C)CC5)ccc4n3)CC2)c1C`, with inactive: 85%; and `COc1ccccc1NC(=O)N1CCN(c2ccc3nnc(-c4ccc(F)cc4)n3n2)CC1`, with inactive: 93%.
For `CCOc1ccc(NC(=O)Cn2nc(Cc3cccnc3)c3ccccc3c2=O)cc1`, the survival is inactive: 84%.
To `COc1ccc(N2CCN(CCCNC(=O)c3c(C)nn(-c4ccc(F)cc4)c3-n3cccc3)CC2)cc1` belongs inactive: 71%; to `CCc1ccc(NC(=O)Cn2nnc(-c3ccccc3N)n2)cc1`, inactive: 62%.
To `COc1ccc(S(=O)(=O)N(CC(=O)NC(C)c2ccccc2)c2ccc(C)cc2)cc1OC` (stereo not drawn) belongs inactive: 71%; to `COc1ccccc1N1CCN(C(=O)c2cc3c(=O)n(Cc4cccs4)ccc3nc2C)CC1`, inactive: 74%; to `O=C(CCC(=O)NC1CCN(Cc2ccccc2)CC1)NCc1ccco1`, inactive: 73%.
For the compound `CCOC(=O)N1CCc2c(sc3c2c(=O)n(-c2ccc(CC)cc2)c(=O)n3Cc2ccc(F)cc2Cl)C1`, the survival is inactive: 72%.
Then `CCOc1ccccc1Nc1sc(C(=O)c2ccccc2)c(N)c1C(=O)Nc1ccc(F)cc1`, with inactive: 85%; and `Cc1ccc(Cn2ccnc2SCC(=O)NCc2ccccc2)cc1`, with inactive: 89%; and `Cc1ccc(NC(=O)c2ccc3c(c2)NC(=O)c2ccccc2S3)c(Cl)c1`, with inactive: 89%.
To `Cc1nn(CC(=O)NC2CC2)c(=O)c2cc3cc(F)ccc3n12` belongs inactive: 81%.

(Values after PubChem BioAssay AID463173 (ICCB-Longwood Screening Facility, Harvard Medical School, 2010).)
